Laboratory results from PubChem BioAssay AID686979 (National Center for Advancing Translational Sciences (NCATS), 2013).
Screen size: about 420,000 compounds; about 50,000 (12%) were called active. Inconclusive results, whose numbers are uncertain, are shown with a selection of clear calls. Calls come from the whole dose curve; as a rule, active = well fitted inhibition curve with a large enough effect; inconclusive = small, poorly fitted or top-dose-only effect; inactive = flat fitted curve, though single readings scatter. Potencies of inconclusive entries are left out as doubtful fits. *1 amine or outer side, *2 acyl side, *3 side chain or, on linkers, in order; H or OH if unused. Where a SMILES comes first, the peptide text is derived from it. [ ]: non-standard residue; d: D form. ξ: configuration not given here. X6 = CCCCCCC[C@H](O)C[C@@H](N[*:1])[C@@H](O)C(=O)[*:2]; X8 = COc1ccc(CCCC(N[*:1])C(=O)[*:2])cc1; ξThr(3R) = C[C@@H](O)C(N)C(=O)O; NMeN = CN[C@@H](CC(N)=O)C(=O)O; X7 = C/C=C(/N[*:1])C(=O)[*:2]; Dhb = C/C=C(\N)C(=O)O; Sar = CNCC(=O)O
% is set by controls: 0 for no effect and ±100 for the full control effect; potency is the fitted concentration of half-maximal effect; tags give direction and shape of the fitted curve.

Assay: qHTS for Inhibitors of human tyrosyl-DNA phosphodiesterase 1 (TDP1): qHTS in cells in presence of CPT; note: nearly all actives have a fitted effect of over 55% in size
Conditions: chicken DT40 Tdp1-/-;hTDP1 cells + 20 nM CPT, ATP luminescence, 48 h; activity change, negative = growth inhibition: at 46.2 µM (top of the series)
Procedure, shortened: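 Cell growth measured by CellTiter-Glo luminescence after a minimum 48 h, 37 C compound exposure with 20 nM CPT in Tdp1-knockout DT40 cells stably expressing hTDP1, seeded 400/well; qHTS titration format.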
In the case of Cc1ccc(Cn2c(C(C)NC(=O)c3ccccc3)nc3ccccc32)cc1 (stereo unspecified), the Potency is reported as inconclusive [inhibitor, single point].
With CNC(=O)c1ccccc1Sc1ccc2c(/C=C/c3ccccn3)n[nH]c2c1 the Potency was active: 4.22 µM.
For O=C(COC(=O)c1ccccn1)Nc1nc(-c2ccccc2)cs1, the “activity change, negative = growth inhibition” value was inactive: -13.3%.
With Cc1ccc(-c2nnc(SCC(=O)NCC3CCCO3)nc2-c2ccc(C)cc2)cc1 (stereo unspecified) the Potency was inconclusive [inhibitor, single point].
In the case of N#Cc1ccc(Oc2ccc(-c3cnc4ccccc4n3)cc2)cc1C#N, the Potency is reported as inconclusive [inhibitor, full curve, poor fit].
For C=CCn1c(Cc2nc3ccccc3[nH]2)n[nH]c1=S, the “activity change, negative = growth inhibition” value was inactive: 0.28%.
In the case of Cc1noc(C)c1S(=O)(=O)N1CCC(C(=O)N2CCN(c3cccc(C(F)(F)F)c3)CC2)CC1, the Potency is reported as active: 5.17 µM.
For C(=C\c1ccccc1)/CN1CCN(C(c2cccc3ccccc23)c2nnnn2C2CCCC2)CC1 (stereo unspecified), the Potency was active: 20.6 µM.
With CCOC(=O)c1c(C)[nH]c(CCC(=O)Nc2ccc(OC)c(OC)c2)c1C the Potency was inconclusive [inhibitor, single point].
With C(=N\Nc1ccc2nncn2n1)/c1ccccn1 the Potency was active: 11.6 µM.
With Cn1c(=O)n(CCCO)c(=O)c2c1nc1n2CCCN1Cc1ccccc1 the “activity change, negative = growth inhibition” value was inactive: -20.2%.
For Cc1cc(C)c(C2=Nn3c(C)nnc3SC2C)cc1C (stereo unspecified), the Potency was active: 18.4 µM.
In the case of COc1cc(C(c2sc3nc(C)nn3c2O)N2CCN(c3ccccc3)CC2)cc(OC)c1OC (stereo unspecified), the Potency is reported as inconclusive [inhibitor, single point].
For CCOC(=O)c1c(C)nn(-c2ccc(NC(=O)/C=C/C(=O)O)cc2)c1C, the “activity change, negative = growth inhibition” value was inactive: -13.8%.
In the case of Cc1cccc2c1N(CC(=O)OC(C)C)C(=O)C2=O, the Potency is reported as inconclusive [inhibitor, single point].
With Cc1ccccc1N=C/C=C1\N(C)c2ccccc2C1(C)C the Potency was active: 18.4 µM.
In the case of CCC1CCCCN1C(=O)CSc1nc2c([nH]c3ccccc32)c(=O)n1-c1ccc(OC)cc1 (stereo unspecified), the Potency is reported as inconclusive [inhibitor, single point].
With Cc1cccc(N2CCN(C(=O)CCC(=O)N3CCOc4ccc(Cl)cc43)CC2C)c1 (stereo unspecified) the Potency was inconclusive [inhibitor, single point].
With CC1=CC2=NC(=O)/C(=C\c3cc(C)n(-c4cccc(Cl)c4)c3C)C(=N)N2O1 the activity change, negative = growth inhibition was inconclusive: -31% [inhibitor].
For CC(=O)n1c(Cl)c(NC(=O)CCl)c2ccccc21, the Potency was active: 10.3 µM.
For O=C(CC(=O)c1ccncc1)c1ccccc1, the Potency was inconclusive [inhibitor, single point].
For O=C(CCS(=O)(=O)c1ccccc1)N(CCCN1CCOCC1)c1nc2ccc(F)cc2s1, the Potency was active: 2.59 µM.
For CN(C(=O)COC(=O)CCC(=O)c1ccc(F)cc1)C1CCCCC1, the “activity change, negative = growth inhibition” value was inactive: -6.42%.
In the case of CCN(C(=O)COC(=O)c1cccc(S(=O)(=O)NCc2ccccc2)c1)c1ccccc1, the Potency is reported as inconclusive [inhibitor, single point].
For O=C(CCNS(=O)(=O)c1ccccc1C(F)(F)F)N1CCN(S(=O)(=O)c2cccc(F)c2)CC1, the “activity change, negative = growth inhibition” value was inactive: -13.9%.
With Cc1ccsc1C(=O)OCC(=O)c1cc(C)n(C)c1C the “activity change, negative = growth inhibition” value was inactive: -22.7%.
For O=C(c1ccc(S(=O)(=O)Cc2cc(F)ccc2F)c([N+](=O)[O-])c1)N1CCCC1, the Potency was active: 3.26 µM.
For O=C(NCC1(N2CCCCC2)CCCCC1)c1ccc(NS(=O)(=O)c2ccc(F)cc2)cc1, the “activity change, negative = growth inhibition” value was inactive: -29.5%.
With COc1ccc(Br)cc1C(=O)N/N=C/c1ccc2c(c1)n(C)c(=O)n2C the “activity change, negative = growth inhibition” value was inactive: 24.2%.
For CCOC(=O)C1(Cc2ccc(OC)cc2)CCN(C(=O)Cn2cnnn2)CC1, the “activity change, negative = growth inhibition” value was inactive: 5.35%.
For O=C(CCn1c2c(c3ccccc31)CCCC2)NNC(=O)c1ccc(Cl)c([N+](=O)[O-])c1, the Potency was inconclusive [inhibitor, single point].
With O=C1NC[C@H](CCCCN2CCN(CCC3CCCCC3)C(=O)C2=O)N(CC2CCCCC2)C1=O the “activity change, negative = growth inhibition” value was inactive: -0.66%.
With O=C(NC1=NCCS1)c1cc(-c2cccs2)nc2ccccc12 the “activity change, negative = growth inhibition” value was inactive: -5.1%.
With C/C=C1\NC(=O)[C@H](CC(N)=O)N(C)C(=O)C([C@@H](C)O)NC(=O)C(CCCc2ccc(OC)cc2)NC(=O)[C@H](C(C)C)NC(=O)/C(=C\C)NC(=O)[C@H](O)[C@@H](C[C@@H](O)CCCCCCC)NC(=O)[C@H](C)NC(=O)CN(C)C(=O)[C@H](CCC(N)=O)NC1=O (stereo partly drawn) (cyclo(A[X6][X7]V[X8][ξThr(3R)][NMeN][Dhb]Q[Sar])) the Potency was active: 7.31 µM.
With COc1ccc(CCNC(=O)CSc2ncc(C(=O)Nc3ccccc3)c(=O)n2C)cc1 the Potency was inconclusive [inhibitor, partial curve].
For CC1Cc2ccccc2N1S(=O)(=O)c1nnc(NC(=O)c2ccccc2)s1 (stereo unspecified), the activity change, negative = growth inhibition was inconclusive: -31.6% [inhibitor].
For CCCn1nc(Oc2nc(NCC)nc(NCC)n2)ccc1=O, the Potency was inconclusive [inhibitor, single point].
In the case of N/C(Cc1ccc([N+](=O)[O-])cc1)=N\OC(=O)c1ccc(Br)cc1, the Potency is reported as inconclusive [inhibitor, single point].
For Cc1ccc(NC(=O)CN(C)C(=O)COc2cccc3cccnc23)cc1, the Potency was active: 3.66 µM.
With CCn1cc2nc(SCC(=O)Nc3ccccc3C(F)(F)F)n(Cc3ccc(C)cc3)c(=O)c2n1 the Potency was active: 16.4 µM.
With Cc1ccccc1C(=O)n1nc(-c2cccnc2)nc1NCc1ccccc1 the Potency was inconclusive [inhibitor, single point].
For CCCCN(CC)CCCNC(=O)c1nn(C)c2c1CSc1ccccc1-2, the Potency was active: 25.9 µM.
In the case of Cc1cc(NC(=O)NC2(C(F)(F)F)Oc3ccc(Cl)cc3O2)no1 (stereo unspecified), the Potency is reported as active: 18.4 µM.
In the case of NNc1ncnc2c1cnn2-c1ccccc1, the Potency is reported as inconclusive [inhibitor, single point].
For CCn1cc(C(=O)N2CCN(c3cccc(C)c3C)CC2)c2cc(OC)c(OC)cc2c1=O, the Potency was active: 20.6 µM.
In the case of CN1CCc2ccc(NC(=O)c3ccc(C(F)(F)F)cc3)cc2C1, the “activity change, negative = growth inhibition” value is reported as inactive: -19%.
